# This is one part of the list. The full chains were built here from the parent and the listed change. Inactive controls read about 0.05.
# B1: TEV protease; numbered along this chain (parent)
# chain: MGESLFKGPRDYNPISSSICHLTNESDGHTTSLYGIGFGPFIITNKHLFRRNNGTLVVQSLHGVFKVKDTTTLQQHLVDGRDMIIIRMPKDFPPFPQKLKFREPQREERICLVTTNFQTKSMSSMVSDTSCTFPSGDGIFWKHWIQTKDGQCGSPLVSTRDGFIVGIHSASNFTNTNNYFTSVPKNFMELLTNQEAQQWVSGWRLNADSVLWGGHKVFMVKPEEPFQPVKEATQL
# Variants of: B1
# Assay: raw area under fraction-flipped curve 0-4 h after induction (AUC4h, not background-subtracted), DNA-recorder readout of cleavage of the substrate (dimensionless); higher = more cleavage of the substrate by the protease variant
# Conditions: temperature: 34 °C; time window: 0-4 h after rhamnose induction
# Description: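 In vivo DNA recorder in E. coli TOP10(DE3) ΔrhaA at 34 °C. Each TEVp single-site mutant (parent TEVp 0) is paired with a single-site variant of the 7-mer TEVs (canonical ENLYFQ|S). The substrate sits between flexible linkers in a Bxb1-sfGFP-TEVs-SsrA fusion, so cleavage stabilises Bxb1 and speeds flipping of a recombination array, read by NGS. The value is the raw area under the fraction-flipped curve over 0-4 h after rhamnose induction (AUC4h), with ≥20 reads per time point. It is not background-subtracted; inactive controls average about 0.047.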
# 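Also: Bxb1 expression induced with 0.2% (w/v) L-rhamnose at OD600 near 0.5, cultures sampled hourly, flipped fraction per protease–substrate barcode pair counted by paired-end Illumina sequencing.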
Variant,area with substrate ENLYFQA,area with substrate ENLYFQC,area with substrate ENLYFQD,area with substrate ENLYFQE,area with substrate ENLYFQG,area with substrate ENLYFQH,area with substrate ENLYFQK,area with substrate ENLYFQL,area with substrate ENLYFQM,area with substrate ENLYFQR,area with substrate ENLYFQS,area with substrate ENLYFQT,area with substrate ENLYFQW,area with substrate ENLYFQY,area with substrate ENLYFQN,area with substrate ENLYFQP,area with substrate ENLYFQV,area with substrate ENLYFQI,area with substrate ENLYFQF,area with substrate ENLYFQQ
MGESLFKGPRDYNPISSSICHLTNESDGHTTSLYGIGFGPFIITNKHLFRRNNGTLVVQSLHGVFKVKDTTTLQQHLVDGRDMIIIRMPKDFPPFPQKLKFREPQREERICLVTTNFQTKSMSSMVSDTSCTFPSGDGIFWKHWIQTKDGQCGSPLVSTRDGFIVGIHSASNFTNTNNYFTSVPKNFMELLTNQEAQQWVSGWRLNADSVLWGGHKVFMVKPEELFQPVKEATQL [P225L],0.114,0.0993,0.0758,0.0618,0.0881,0.0665,0.078,0.0588,0.0918,0.0569,0.0951,0.0623,0.0689,0.0766,–,–,–,–,–,–
MGESLFKGPRDYNPISSSICHLTNESDGHTTSLYGIGFGPFIITNKHLFRRNNGTLVVQSLHGVFKVKDTTTLQQHLVDGRDMIIIRMPKDFPPFPQKLKFREPQREERICLVTTNFQTKSMSSMVSDTSCTFPSGDGIFWKHWIQTKDGQCGSPLVSTRDGFIVGIHSASNFTNTNNYFTSVPKNFMELLTNQEAQQWVSGWRLNADSVLWGGHKVFMVKPEEPFSPVKEATQL [Q227S],0.116,–,–,–,–,–,–,–,0.0897,0.0582,0.106,–,0.0657,–,0.065,0.0592,0.0604,–,–,–
MGESLFKGPRDYNPISSSICHLTNESDGHTTSLYGIGFGPFIITNKHLFRRNNGTLVVQSLHGVFKVKDTTTLQQHLVDGRDMIIIRMPKDFPPFPQKLKFREPQREERICLVTTNFQTKSMSSMVSDTSCTFPSGDGIFWKHWIQTKDGQCGSPLVSTRDGFIVGIHSASNFTNTNNYFTSVPKNFMELLTNQEAQQWVSGWRLNADSVLWGGHKVFMVKPEEPFQHVKEATQL [P228H],0.137,–,0.0772,–,–,0.0847,–,0.0538,0.0788,0.0683,0.0979,0.0589,0.0673,0.071,0.0518,–,–,0.0479,–,–
MGESLFKGPRDYNPISSSICHLTNESDGHTTSLYGIGFGPFIITNKHLFRRNNGTLVVQSLHGVFKVKDTTTLQQHLVDGRDMIIIRMPKDFPPFPQKLKFREPQREERICLVTTNFQTKSMSSMVSDTSCTFPSGDGIFWKHWIQTKDGQCGSPLVSTRDGFIVGIHSASNFTNTNNYFTSVPKNFMELLTNQEAQQWVSGWRLNADSVLWGGHKVFMVKPEEPFQQVKEATQL [P228Q],0.106,0.111,0.0761,0.0092,0.111,–,0.0682,0.0775,0.0905,0.042,0.101,0.0612,0.0869,0.0738,0.0778,–,0.0569,0.0547,0.0742,–
MGESLFKGPRDYNPISSSICHLTNESDGHTTSLYGIGFGPFIITNKHLFRRNNGTLVVQSLHGVFKVKDTTTLQQHLVDGRDMIIIRMPKDFPPFPQKLKFREPQREERICLVTTNFQTKSMSSMVSDTSCTFPSGDGIFWKHWIQTKDGQCGSPLVSTRDGFIVGIHSASNFTNTNNYFTSVPKNFMELLTNQEAQQWVSGWRLNADSVLWGGHKVFMVKPEEPFQPMKEATQL [V229M],0.093,0.105,–,–,–,0.0816,0.065,–,0.0842,0.0444,0.1,0.0656,0.0877,0.093,0.0716,–,–,–,–,0.0625

# Reference: the supplement of paper PMC12217912
